# Results reported in PMC4242493.
# The list shows a part of the results. The list includes weakly bound sequences.
# Molecular target: MaxL homodimer (UniProt P61244)
# Test: universal protein-binding microarray (PBM)
# Details: PBS-based mixture, 10 nM His-tagged protein dimer, 2% milk, 200 ng/uL BSA, 50 ng/uL salmon testes DNA, 0.02% TX-100; detection with Alexa 488 anti-His …; high values mean tight binding; most listed sequences are background and not binding sites; double strand, one strand shown
# Chain of UniProt P61244 (P61244 whole entry): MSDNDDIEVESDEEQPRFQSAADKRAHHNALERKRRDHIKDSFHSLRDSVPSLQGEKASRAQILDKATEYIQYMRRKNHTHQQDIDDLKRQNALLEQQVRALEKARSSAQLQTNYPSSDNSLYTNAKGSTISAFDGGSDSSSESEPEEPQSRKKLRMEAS
row,Sequence,binding signal (normalized occupancy)
1,CACTTCAA,0.0737
2,AATTTCTG,0.071
3,CGTAAGCC,0.0712
4,AAATGCCC,0.0782
5,CGCAGAAA,0.0699
6,AAACTATG,0.0755
7,ATCGTATA,0.0801
8,GGGAAGCA,0.0776
9,GGGACACC,0.068
10,AGTGCCCA,0.0691
11,TAATGGAA,0.0741
12,AGACGGAG,0.064
13,ATGGAATG,0.0796
14,AAAACCCT,0.0749
15,AGTTAGTG,0.0707
16,AGTTAGCG,0.0747
17,CTATCGCC,0.0752
18,CCCTCACA,0.0772
19,TAGAAAAA,0.0751
20,CTTTTAGC,0.071
21,TAGGAACA,0.076
22,AGCAACCT,0.0778
23,GGCATAAA,0.073
24,ACTGGTGC,0.0749
25,TACGCCTA,0.0755

row,Sequence,binding signal (normalized occupancy)
1,AACACGCT,0.0974
2,CCCGTGAC,0.0826
3,AAGAGAGC,0.0672
4,ATCACTCC,0.0714
5,GAACTTCA,0.0701
6,AAGATGAC,0.0738
7,GCCCGCGC,0.0686
8,AATCTTCA,0.072
9,CTCAACCC,0.072
10,CGCACGGC,0.0756
11,CTGGGCAC,0.0695
12,ACGGCTAA,0.0725
13,CAATATAC,0.0795
14,CCGGCGAG,0.0683
15,TACTCATA,0.0778
16,GAAGCGGA,0.0695
17,ACGGCGTG,0.0958
18,AAGCTTCG,0.0681
19,GCCGTCAC,0.0701
20,TAGATATA,0.0862
21,GGAAATAC,0.0757
22,ACGTTGGG,0.0801
23,GATTAATA,0.0826
24,CTGCAATA,0.0719
25,GCTCGGAC,0.0706

row,Sequence,binding signal (normalized occupancy)
1,CCTCGCAA,0.0727
2,ACCCGAGG,0.0767
3,AAGAGTAC,0.0695
4,ATGAAGGC,0.0738
5,AACTGTCT,0.0701
6,AGTCAACT,0.0744
7,CCCGCTGA,0.0751
8,AGGTCAGC,0.0718
9,AAGTGGCT,0.072
10,CCCCAACC,0.0744
11,CTCAAATC,0.0779
12,CCAATGAA,0.0693
13,GGTGCAAC,0.0718
14,ACTCTTTG,0.0732
15,GGCCGGAA,0.0659
16,AGTTTACG,0.0705
17,AGCAGTCA,0.0745
18,GACAGCCA,0.0726
19,AATCATGG,0.0832
20,CTTCCTAA,0.0757
21,ACGTAGTG,0.0792
22,AACTTAAC,0.0733
23,TGGTGGAA,0.0731
24,CAAGTGTA,0.0832
25,AATGCGTC,0.0736

row,Sequence,binding signal (normalized occupancy)
1,GCACTACA,0.0815
2,GATGCACA,0.0921
3,ACCCCCGA,0.0852
4,AACCCACA,0.082
5,AAAAAGTG,0.0735
6,AGTGACTA,0.0719
7,CCTCACCA,0.0806
8,TACAGAAA,0.0827
9,GTCGCTAA,0.0691
10,CTGGCAAC,0.0708
11,GTTTCTGA,0.074
12,TCACTCCA,0.0796
13,ATTAATGA,0.0803
14,TAATATTA,0.0831
15,AAGCGTGG,0.121
16,GAGGCTCC,0.0715
17,ACTCACCA,0.0753
18,ATAGCGTG,0.104
19,TGATTCAA,0.0777
20,TCCCACGA,0.0838
21,CTAGGGCA,0.0657
22,GGACGTCC,0.0681
23,ACCGGTAC,0.0688
24,AAATCTGT,0.0754
25,GGGGGGCA,0.0847

row,Sequence,binding signal (normalized occupancy)
1,CGTATTGA,0.079
2,GAAGTCAC,0.0814
3,ACTTGAAA,0.0709
4,ACAAGGAC,0.0809
5,CCTCAGAA,0.0763
6,CCTAATCG,0.0698
7,ACCTCTTC,0.0763
8,GGCATCCC,0.0791
9,ATTCTGAG,0.0732
10,GCTGGCTA,0.07
11,GACGTCTC,0.0719
12,AACAAATG,0.0771
13,ATCATCAA,0.0756
14,ATCGCCTA,0.0745
15,CAAACCAG,0.072
16,CAGGCCTC,0.0728
17,AGGCCAGC,0.0697
18,ACAAGACT,0.0738
19,CACTGTAC,0.0769
20,AGCAGATG,0.0826
21,CCTGGGAA,0.0702
22,CTATGACC,0.0793
23,GCCGATCA,0.0731
24,AATACATC,0.0794
25,AATAGTCG,0.0712

row,Sequence,binding signal (normalized occupancy)
1,ACCCTGGG,0.0725
2,GATCATGC,0.101
3,AACCAGTG,0.0744
4,GAGATACA,0.0779
5,AAGCAGGC,0.075
6,AAAACTGG,0.0704
7,CCGCGCTA,0.0732
8,CAGCTTCA,0.0678
9,CGCTAGAG,0.0701
10,AGAACCCG,0.0723
11,AGCTAGGC,0.0696
12,ATCCTCTG,0.0778
13,ATCTATCA,0.0812
14,GGCTTTGA,0.0672
15,CGCTGTTA,0.0766
16,AGAACGAG,0.0846
17,CCAATGGC,0.0707
18,AGTGCTGA,0.0722
19,TCTATCAA,0.0789
20,AACTGCTG,0.0663
21,CCCTGCCC,0.0787
22,CCAGTAGA,0.0743
23,GACAACTA,0.0752
24,CCGGCACC,0.0757
25,ACATGGCC,0.0878

row,Sequence,binding signal (normalized occupancy)
1,ATTGAAGC,0.0724
2,CCCACCCG,0.0829
3,CAATCGTA,0.0786
4,AAAGAGTC,0.0701
5,GCTACTAA,0.0759
6,ATTAAATC,0.0755
7,CACCCGCA,0.0723
8,CGTGTTCC,0.083
9,CAGTCATA,0.0793
10,CCGACAGG,0.0726
11,GCATTCTA,0.0844
12,CTGCAAGA,0.0702
13,ACATAGGT,0.075
14,AAAGCACG,0.0922
15,ACGTTATC,0.0926
16,AAGATTCT,0.0678
17,ACAGGAGA,0.0792
18,AACAATGC,0.0816
19,GCAAGTTA,0.0701
20,ATGATAAG,0.0844
21,TAGATAGA,0.0741
22,GACTCCTA,0.0736
23,CAGTCGCA,0.0738
24,CCCGTGCC,0.0787
25,CATTGGTC,0.0741

row,Sequence,binding signal (normalized occupancy)
1,TAAATAGA,0.076
2,ATCGAATC,0.0788
3,TCAGCTGA,0.0752
4,AACCCAGA,0.0685
5,TACCGCTA,0.0749
6,AGTAAAGA,0.0733
7,CCATTTAG,0.0773
8,AACATACC,0.086
9,TATGTCAA,0.0833
10,AAGTTTTG,0.0696
11,ACGAAATA,0.0748
12,ATAGAAGC,0.0772
13,AGAACTCC,0.0751
14,CGGGCGGC,0.0664
15,GAGCAAGA,0.0711
16,TCTATTAA,0.0774
17,AGCTCCTA,0.0717
18,AGGAACCC,0.0717
19,GAAATCCA,0.0736
20,ATTCGATC,0.078
21,CCAATAGG,0.0767
22,ACTGTCAC,0.0768
23,ATTGTAGA,0.0778
24,TCTAGCAA,0.0728
25,TCTACTAA,0.0805

row,Sequence,binding signal (normalized occupancy)
1,ACTCAATA,0.0757
2,ATCTTGAA,0.0767
3,CGCATAAA,0.0847
4,ACGTTTAA,0.0766
5,GAGTAATA,0.075
6,CATCAGAG,0.0721
7,CTCGAACA,0.075
8,CTATGCGC,0.075
9,CCGGTTTC,0.0693
10,CTTACAAC,0.0757
11,ACTAGTGA,0.0727
12,GATAGTTA,0.0809
13,AACCGTAA,0.0755
14,CACTGACA,0.0741
15,AGATCCAG,0.0704
16,ATTCGAGA,0.0811
17,CTGACACA,0.0841
18,CAGCCGCG,0.0729
19,ACGCTTAA,0.0769
20,AAGGGTCC,0.0698
21,GGTCCACA,0.0842
22,GTTCCCGA,0.0705
23,AGCAGCGG,0.0754
24,TAGTTGCA,0.0712
25,CGAAAGCA,0.0741

row,Sequence,binding signal (normalized occupancy)
1,ATAAACAG,0.0716
2,CCTTACTC,0.0769
3,ATCTGCCC,0.0754
4,CAATTAGG,0.0717
5,ATCTACCA,0.0834
6,CGCTTCTC,0.0721
7,CGAGGATC,0.0785
8,AGGGGCAT,0.0893
9,GACAGCTA,0.0749
10,GACAATCA,0.0761
11,CTCGCGAA,0.071
12,GCCATTGA,0.0698
13,ACCCGTTA,0.0747
14,CCTTCCAG,0.0698
15,ATGCATGC,0.126
16,ATGGACGA,0.0815
17,AAGCCAGT,0.0699
18,AGCTGTCG,0.0737
19,AAGCAATT,0.0685
20,GTTTCGAA,0.0702
21,GTACTAAA,0.0741
22,GGATTTCA,0.0701
23,AGATGGAG,0.0771
24,CCGGCTAG,0.0632
25,AGTCCACT,0.0773

row,Sequence,binding signal (normalized occupancy)
1,TACCGTAA,0.0744
2,CACATCTG,0.0871
3,GTCTCAGA,0.0751
4,ATGAGAGG,0.0755
5,TCTAGTAA,0.0783
6,AACGGCCC,0.0679
7,ACAAACAT,0.0871
8,AGTCTTAA,0.0743
9,AGGCGGAT,0.0708
10,CATTGGGG,0.0853
11,AGGCGGCG,0.0693
12,GCACTCCA,0.0756
13,AGACTATA,0.0771
14,GTTCCATA,0.0847
15,CGGGATTC,0.0741
16,AAACCACG,0.0972
17,CGGACTAC,0.0743
18,TCATCAAA,0.0748
19,ATTCGTTC,0.0776
20,AGTATTGG,0.0738
21,CTTCAATA,0.0784
22,ATTCTACG,0.0767
23,CACGTAAG,0.0796
24,ACAGACGT,0.0771
25,ACATGGGT,0.1

row,Sequence,binding signal (normalized occupancy)
1,GTGGTCCA,0.0853
2,GGTCAATA,0.0817
3,AACGCTAA,0.0764
4,CTGACTTC,0.0702
5,CTTATGCA,0.0817
6,AATCCTAC,0.0777
7,ACAAGCCA,0.0785
8,AGTTTGAA,0.0729
9,GCAATCAC,0.0763
10,AAACAGCC,0.0712
11,CTTACTGA,0.0709
12,AGCATTAG,0.0766
13,ATTGCCGG,0.0696
14,GGCTCGTA,0.0762
15,GCATTCGC,0.0709
16,GAATGACC,0.0752
17,ACAGATTG,0.0752
18,ATATTGCA,0.0767
19,CCAGCCAG,0.0737
20,GCATTCCC,0.0791
21,TAACGCAA,0.0766
22,GTATCTGA,0.0784
23,GCTATTCA,0.0731
24,ATAAAGGC,0.0757
25,CCCGTTGC,0.0682

row,Sequence,binding signal (normalized occupancy)
1,ACACGGAT,0.0806
2,ACGGCCTG,0.0707
3,AACAGACT,0.0794
4,AGTTCCCA,0.0684
5,AACTTCGT,0.0691
6,ATTATATC,0.0811
7,AGGTAGAT,0.0759
8,CAGCCGAC,0.0758
9,CAGTAACG,0.0748
10,CCGAACAA,0.0756
11,TATGTTAA,0.0796
12,CAGTGTTC,0.071
13,GCCTACTA,0.0703
14,CCCTTCGG,0.0671
15,ATCGCCAC,0.0789
16,GATGGCGC,0.0717
17,ACAGGACC,0.0698
18,CCGTGTGC,0.0858
19,CCGAACTC,0.0678
20,AATATCAT,0.0842
21,GAGTCGTA,0.0742
22,CGAGGGCA,0.0765
23,ACTCCTTA,0.0782
24,ACCCGACC,0.0766
25,CAACCATC,0.0774

row,Sequence,binding signal (normalized occupancy)
1,ATCCGAAC,0.0723
2,CGAAAGCG,0.067
3,CGCTTTTA,0.0697
4,ACCGAGGC,0.0719
5,AGCAAAAT,0.0746
6,GGATTCGA,0.0769
7,ATACGCGC,0.0771
8,CCATGTCC,0.0824
9,ATTTCCCG,0.07
10,CACGTGGC,0.837
11,CGGCGATC,0.0709
12,AGACATCC,0.0736
13,ACAGCCTC,0.0748
14,GTATGCAA,0.0777
15,ACACCAAC,0.0768
16,CTATATGC,0.0831
17,ATACACCA,0.0809
18,AAAACTTA,0.0713
19,CGACAAAG,0.0696
